{
  "source": "PubChem BioAssay AID1508623",
  "about": "(National Center for Advancing Translational Sciences (NCATS), 2021)",
  "note": "Hit rate of the full screen: of about 48,000 compounds, about 450 (0.94%) were called active. This list was built around the results that the source calls inconclusive (neither active nor inactive); the mix of calls is not that of the screen. Calls follow the shape of the dose curve; as a rule, active = well fitted inhibition curve with a large enough effect; inconclusive = small, poorly fitted or top-dose-only effect; inactive = no such curve, though single readings can be large or run the other way. Where the call is inconclusive, the potency comes from a doubtful curve fit. Potency is read from the fitted curve at half-maximal effect; tags tell the direction and shape of the fitted curve.",
  "data": [
    {"experiment": "Primary qHTS for Identification of Small Molecule Inhibitors of Huntingtin Promoter Activity; also: nearly all actives have a fitted effect of over 50% in size", "details": "HEK293 HTT promoter firefly luciferase reporter (activity 0% = vehicle and -100% = no light), 24 h; series mostly up to 57.5 µM", "outline": "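HEK293 luciferase promoter-reporter cells (2,500/well) plated 24 h, then compounds added at up to 57.5 uM final for 24 h at 37 °C. Firefly luminescence by Dual-Glo, normalized to vehicle (0%) and zero RLU (-100%).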", "values": [
      {"smiles": "N=C(N=C(N)N)N1CCOCC1", "Potency": "inconclusive: 10.9 µM [inhibitor, full curve]"},
      {"smiles": "Cc1nnc(NCc2ccccc2)c2c1nnn2Cc1ccc(F)cc1", "Potency": "inconclusive: 28.2 µM [inhibitor, partial curve, poor fit]"},
      {"smiles": "Cc1ccc(CN2C(=O)C3(c4ccccc42)N(c2cccc(C(F)(F)F)c2)C(=O)CS3(=O)=O)cc1", "note": "(stereo unspecified)", "Potency": "inconclusive: 22.4 µM [inhibitor, partial curve, poor fit]"},
      {"smiles": "O=c1cc(CSc2n[nH]c(-c3ccccc3)n2)[nH]c2ccccc12", "Potency": "inconclusive: 22.4 µM [inhibitor, single point]"},
      {"smiles": "COc1ccccc1NC(=O)CSc1oc(-c2cccs2)nc1S(=O)(=O)c1ccccc1", "Potency": "inconclusive: 15.8 µM [inhibitor, partial curve, poor fit]"},
      {"smiles": "COc1cc(NC(=O)c2cc3c(=O)n(Cc4cccs4)ccc3nc2C)cc(OC)c1OC", "Potency": "inconclusive: 14.1 µM [inhibitor, partial curve]"},
      {"smiles": "COc1cccc(N2CCN(C(=O)c3cnn(-c4ccc(C)cc4C)c3C3CCN(C(=O)OC(C)(C)C)CC3)CC2)c1", "Potency": "inconclusive: 28.2 µM [inhibitor, partial curve, poor fit]"},
      {"smiles": "Cc1nn(CC(=O)Nc2ccccc2F)c(=O)c2c(C)n(-c3ccc(Cl)cc3)nc12", "Potency": "inconclusive: 12.6 µM [inhibitor, partial curve, poor fit]"},
      {"smiles": "Cc1cccc(Oc2ccc3c(c2)Oc2ccccc2NC3=O)c1", "Potency": "inactive"},
      {"smiles": "COc1ccc(CNC(=O)c2cnn(-c3ccc(F)cc3)c2-n2cccc2)cc1", "Potency": "inactive"},
      {"smiles": "CCOC(=O)c1cc(-c2ccccc2)n(-c2cccc(C(=O)Nc3cccc(C(C)=O)c3)c2)c1C", "Potency": "inconclusive: 20 µM [inhibitor, partial curve, poor fit]"},
      {"smiles": "Cc1oc2c(c(C)cc3oc(=O)c(CC(=O)NCc4ccccc4)c(C)c32)c1C", "Potency": "inactive"},
      {"smiles": "Cc1c(Cl)cccc1NC(=O)Cn1cc2c(n1)CCCC2", "Potency": "inactive"},
      {"smiles": "O=C(CSc1nc2c([nH]c3ccccc32)c(=O)n1-c1ccccc1)N1CCCCCC1", "Potency": "inconclusive: 5.01 µM [inhibitor, single point]"},
      {"smiles": "C[C@@H](Oc1cc(-c2cnn(C3CCNCC3)c2)cnc1N)c1c(Cl)ccc(F)c1Cl", "Potency": "inconclusive: 27.3 µM [inhibitor, partial curve, poor fit]"},
      {"smiles": "Cc1nc2c3ccccc3nc(NNC(=O)CCC(=O)N3CCN(c4cccc(C(F)(F)F)c4)CC3)n2n1", "Potency": "inconclusive: 20 µM [inhibitor, partial curve, poor fit]"},
      {"smiles": "CCN(CC)c1cc(C)c2cc(NC(=O)c3ccc(F)cc3Cl)ccc2n1", "Potency": "inactive"},
      {"smiles": "Cn1c(=O)oc2cc(S(=O)(=O)N3CCC(C(=O)N4CCN(c5ccc(Cl)cc5)CC4)CC3)ccc21", "Potency": "inconclusive: 3.55 µM [inhibitor, single point]"},
      {"smiles": "Cc1cccc(NS(=O)(=O)c2ccc(NC(=O)N3CCCC3)cc2)c1", "Potency": "inconclusive: 1.78 µM [inhibitor, full curve]"},
      {"smiles": "Cc1ccccc1CNC(=O)Nc1ccc2c(c1)N(C)C(=O)c1ccccc1S2", "Potency": "inconclusive: 25.1 µM [inhibitor, single point]"},
      {"smiles": "O=c1cc(-c2ccccc2)c2ccc3c(c2o1)CN(Cc1ccccc1)CO3", "Potency": "inactive"},
      {"smiles": "C/C=C/c1ccc(O)c(OC)c1", "Potency": "inactive"},
      {"smiles": "CCC(C)NC(=O)c1sc2ncccc2c1-n1c(C)ccc1C", "note": "(stereo unspecified)", "Potency": "inconclusive: 35.5 µM [inhibitor, partial curve, poor fit]"},
      {"smiles": "Cc1cccc(NC(=O)COc2cccc3c(=O)n(C)ccc23)c1C", "Potency": "inconclusive: 10 µM [inhibitor, partial curve]"},
      {"smiles": "Cc1ccc(CNc2nccn(-c3cc(C)cc(C)c3)c2=O)cc1", "Potency": "inconclusive: 35.5 µM [inhibitor, single point]"},
      {"smiles": "CN(C(=O)CSc1nc2ccc(NC(=O)COc3ccccc3)cc2s1)c1ccccc1", "Potency": "inconclusive: 35.5 µM [inhibitor, single point]"},
      {"smiles": "CCN(C(=O)CSc1nc2n[nH]c(C)c2c(=N)n1-c1cccc(OC)c1)c1cccc(C)c1", "Potency": "inconclusive: 22.4 µM [inhibitor, single point]"},
      {"smiles": "COc1ccc(C2Oc3nc(SC)nnc3-c3ccccc3N2C(C)=O)cc1", "note": "(stereo unspecified)", "Potency": "inactive"},
      {"smiles": "Cc1cc(C)cc(NC(=O)CCC(=O)N2CCSc3ccccc32)c1", "Potency": "inconclusive: 31.6 µM [inhibitor, single point]"},
      {"smiles": "Cc1cc(Nc2nc(N[C@@H](C)c3ncc(F)cn3)ncc2Cl)n[nH]1", "Potency": "inconclusive: 21.7 µM [inhibitor, partial curve]"},
      {"smiles": "Cc1ccc(S(=O)(=O)NCCc2csc(-c3cccc(F)c3)n2)cc1", "Potency": "inconclusive: 25.1 µM [inhibitor, partial curve, poor fit]"},
      {"smiles": "Cc1ccc(NC(=O)C2CCN(c3nnc(C)c4c(C)n(-c5ccccc5)nc34)CC2)cc1Cl", "Potency": "inactive"},
      {"smiles": "CCc1nn2c(=O)cc(COC(=O)C(CC)c3ccccc3)nc2s1", "note": "(stereo unspecified)", "Potency": "inconclusive: 22.4 µM [inhibitor, partial curve, poor fit]"},
      {"smiles": "CCOC(=O)c1c(Oc2ccc(C(C)=O)cc2)nnc(-c2ccccc2)c1-c1ccccc1", "Potency": "inconclusive: 31.6 µM [inhibitor, partial curve, poor fit]"},
      {"smiles": "O=C(CC1N=C2c3ccccc3N=C(SCC(=O)Nc3ccc(F)cc3)N2C1=O)NCc1cccs1", "note": "(stereo unspecified)", "Potency": "inconclusive: 39.8 µM [inhibitor, single point]"},
      {"smiles": "O=C(NCc1ccccc1)c1ccc2oc(=O)n(Cc3ccccc3)c2c1", "Potency": "inconclusive: 31.6 µM [inhibitor, single point]"},
      {"smiles": "COCCNC(=O)c1ccc2c(c1)N=C(C)c1cc(C)ccc1S2", "Potency": "inconclusive: 1.58 µM [inhibitor, full curve]"},
      {"smiles": "CCOc1ccc(-n2nc3ccc(NC(=O)c4ccc(-c5cccc(Cl)c5)o4)cc3n2)cc1", "Potency": "inconclusive: 11.2 µM [inhibitor, partial curve, poor fit]"},
      {"smiles": "CC1=C(C(=O)OC2CCCCCC2)C(c2cccc(Cl)c2)CC(=O)N1", "note": "(stereo unspecified)", "Potency": "inconclusive: 31.6 µM [inhibitor, single point]"},
      {"smiles": "CC1=Nc2cc(C(=O)NCCc3ccc(Cl)cc3)ccc2Sc2c(C)ccc(C)c21", "Potency": "inconclusive: 8.91 µM [inhibitor, full curve, poor fit]"},
      {"smiles": "O=C(O)c1ccc(-c2cc3cccnc3c(-c3ccc4nonc4c3)n2)cc1", "Potency": "inactive"},
      {"smiles": "COc1ccc(NC(=O)Cn2cc(S(=O)(=O)Cc3ccc(F)cc3)c3ccccc32)cc1OC", "Potency": "inconclusive: 25.1 µM [inhibitor, partial curve, poor fit]"},
      {"smiles": "Cc1c(CN2CCN(S(C)(=O)=O)CC2)sc2c(N3CCOCC3)nc(-c3cnc(N)nc3)nc12", "Potency": "inconclusive: 0.0863 µM [inhibitor, full curve]"},
      {"smiles": "CCCCC1CCC(C(=O)N2CC(=O)Nc3ccc(Cl)cc3C2c2ccc(F)cc2)CC1", "note": "(stereo unspecified)", "Potency": "inconclusive: 20 µM [inhibitor, partial curve, poor fit]"},
      {"smiles": "CCN(CC)c1ccc(-c2nc(-c3ccco3)no2)cc1[N+](=O)[O-]", "Potency": "inconclusive: 1.58 µM [inhibitor, partial curve, poor fit]"},
      {"smiles": "COc1ccc(NC(=O)c2cnc(N3CCCCC3)c3ccccc23)cc1Cl", "Potency": "inconclusive: 12.6 µM [inhibitor, partial curve, poor fit]"},
      {"smiles": "O=C(O)CCC1CCC(c2cc(F)ccc2F)(S(=O)(=O)c2ccc(Cl)cc2)CC1", "note": "(stereo unspecified)", "Potency": "inactive"},
      {"smiles": "Cc1ccc(CCNC(=O)c2ccc3c(=O)n(-c4ccccc4)c(=O)[nH]c3c2)cc1", "Potency": "inconclusive: 2.24 µM [inhibitor, partial curve, poor fit]"},
      {"smiles": "COc1ccc(CCNC(=O)c2cc(S(=O)(=O)N3CCCC(C)C3)cn2C)cc1OC", "note": "(stereo unspecified)", "Potency": "inconclusive: 39.8 µM [inhibitor, single point]"},
      {"smiles": "CCOC(=O)c1ccc(NC(=O)CSc2nccn2Cc2ccc(OC)cc2)cc1", "Potency": "inconclusive: 39.8 µM [inhibitor, single point]"},
      {"smiles": "CC(=O)c1cccc(NC(=O)c2c(C)nn(-c3ccc(F)cc3)c2-n2cccc2)c1", "Potency": "inconclusive: 39.8 µM [inhibitor, single point]"},
      {"smiles": "CCCCCN1C(C(=O)c2ccccc2)=C(NC(C)=O)c2ccccc2S1(=O)=O", "Potency": "inconclusive: 28.2 µM [inhibitor, partial curve, poor fit]"},
      {"smiles": "COc1ccc(C)cc1NC(=O)CCNS(=O)(=O)c1cccc2nonc12", "Potency": "inactive"},
      {"smiles": "Cc1cc(Cl)ccc1OCC(=O)N(Cc1ccc(N(C)C)cc1)CC1CCCO1", "note": "(stereo unspecified)", "Potency": "inconclusive: 39.8 µM [inhibitor, single point]"},
      {"smiles": "Cc1c(-c2ccccc2)n(-c2ccccc2O)c2nc3c(c(=O)n(C)c(=O)n3C)n12", "Potency": "inconclusive: 31.6 µM [inhibitor, partial curve, poor fit]"},
      {"smiles": "O=C(c1ccc2c(c1)N(Cc1ccccc1)C(=O)c1ccccc1S2=O)N1CCC(Cc2ccccc2)CC1", "note": "(stereo unspecified)", "Potency": "inconclusive: 39.8 µM [inhibitor, partial curve, poor fit]"},
      {"smiles": "CCCOc1ccc(C2=NC(c3ccc(F)cc3)=Nc3ccc(OC)cc3N2)cc1", "Potency": "inactive"},
      {"smiles": "Nc1nccc(-c2ccc3noc(-c4ccc(Cl)cc4)c3c2)n1", "Potency": "inconclusive: 43.2 µM [inhibitor, single point]"},
      {"smiles": "COc1ccc(N2CCN(C(=O)Cn3nc(Cc4cccnc4)c4ccccc4c3=O)CC2)cc1", "Potency": "inconclusive: 25.1 µM [inhibitor, partial curve]"},
      {"smiles": "COc1ccc(NC(=O)NCC2CCN(Cc3ccccc3F)CC2)c(OC)c1", "Potency": "inactive"},
      {"smiles": "COc1ccc(CCN2C(=O)N(c3ccc(F)cc3)C(=O)C2CC(=O)Nc2ccc(OC)cc2)cc1", "note": "(stereo unspecified)", "Potency": "inconclusive: 25.1 µM [inhibitor, partial curve, poor fit]"}
    ]}
  ]
}
